From paper PMC4336329 (PLoS ONE, 2015)
Among all 310,000 compounds or so, about 2,200 (0.71%) showed an effect of 50% or more. Effects have a minus sign here. Some of the results follow.

The molecules below were run against human ether-à-go-go-related gene (hERG) potassium channel (human, UniProt Q12809) (assay: primary screen, population patch clamp on CHO cells stably expressing hERG).
Sequence of human ether-à-go-go-related gene (hERG) potassium channel (Q12809 whole entry, looked up): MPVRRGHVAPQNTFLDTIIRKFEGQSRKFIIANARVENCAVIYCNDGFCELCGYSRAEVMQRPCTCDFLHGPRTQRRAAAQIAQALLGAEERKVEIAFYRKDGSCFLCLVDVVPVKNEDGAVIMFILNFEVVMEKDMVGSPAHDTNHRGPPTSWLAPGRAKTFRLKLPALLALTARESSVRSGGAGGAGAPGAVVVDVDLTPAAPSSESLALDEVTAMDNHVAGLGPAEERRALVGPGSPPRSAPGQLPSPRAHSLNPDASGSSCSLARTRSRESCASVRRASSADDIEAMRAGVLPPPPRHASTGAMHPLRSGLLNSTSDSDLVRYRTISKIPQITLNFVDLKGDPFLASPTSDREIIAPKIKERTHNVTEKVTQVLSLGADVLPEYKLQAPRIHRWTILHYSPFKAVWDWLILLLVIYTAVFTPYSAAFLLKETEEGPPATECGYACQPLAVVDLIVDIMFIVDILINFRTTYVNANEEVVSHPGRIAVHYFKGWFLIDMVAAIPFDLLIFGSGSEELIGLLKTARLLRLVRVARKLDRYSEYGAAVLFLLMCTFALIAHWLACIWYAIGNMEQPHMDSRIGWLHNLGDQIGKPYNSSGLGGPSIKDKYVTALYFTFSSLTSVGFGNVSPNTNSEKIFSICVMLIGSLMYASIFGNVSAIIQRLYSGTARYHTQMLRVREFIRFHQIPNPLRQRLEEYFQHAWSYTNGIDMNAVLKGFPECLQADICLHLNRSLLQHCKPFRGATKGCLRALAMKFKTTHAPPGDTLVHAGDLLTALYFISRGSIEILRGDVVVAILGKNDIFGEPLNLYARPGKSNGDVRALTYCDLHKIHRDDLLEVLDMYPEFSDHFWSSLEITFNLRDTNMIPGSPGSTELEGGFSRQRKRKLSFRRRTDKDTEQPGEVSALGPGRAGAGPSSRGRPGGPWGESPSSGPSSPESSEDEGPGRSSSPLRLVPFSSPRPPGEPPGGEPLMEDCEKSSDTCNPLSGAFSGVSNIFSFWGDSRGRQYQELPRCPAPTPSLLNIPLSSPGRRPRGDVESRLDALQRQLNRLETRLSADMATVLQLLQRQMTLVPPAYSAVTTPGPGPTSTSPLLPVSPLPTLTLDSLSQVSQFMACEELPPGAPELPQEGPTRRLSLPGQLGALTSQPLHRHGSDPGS

| Structure (SMILES) | hERG current change (%, negative = inhibition) at 1uM [%] |
| --- | --- |
| Cc1cc(C(F)(F)F)nc(SCC(=O)Nc2c(C)n(C)n(-c3ccccc3)c2=O)n1 | -0.388 |
| Cc1ccccc1NC(=O)N1CCc2ccccc2C1 | 20.1 |
| COCCCNc1nc2c(c(=O)[nH]c(=O)n2C)n1CC(O)COc1ccccc1 (stereo not shown) | -2.53 |
| CCN1C(=O)C(CC(=O)NC2CCCCC2)N(CC)C1=O (stereo not shown) | 6.32 |
| COc1ccc(CNC(=O)CNC(=O)N2CC(=O)Nc3ccccc32)cc1 | 7.68 |
| COc1ccc(NC(=O)CN(C)C(=O)C23CC4CC(CC(C4)C2)C3)cc1 | -11 |
| Cc1c(NC(=O)c2cn3ccccc3n2)cccc1-n1cnnn1 | 8.18 |
| O=C(O)C(=O)O.O=C(c1ccco1)N1CCN(Cc2ccccc2F)CC1 | 6.83 |
| CCN(CC)S(=O)(=O)c1cccc(NC(=O)/C=C/c2cccc([N+](=O)[O-])c2)c1 | 11.2 |
| CC(C)Oc1ccc(C(=O)NC2(C(F)(F)F)N=C3SCCN3C2=O)cc1 (stereo not shown) | 12.8 |
| Cc1cc(NC(=O)CSCC(=O)Nc2ccccc2N2CCCCC2)no1 | -0.0494 |
| COc1cc(OC)cc(C(=O)Nc2ccc(S(=O)(=O)Nc3cc(C)on3)cc2)c1 | 13.9 |
| COC(=O)c1sc(S(=O)(=O)NCC(=O)O)c(C(=O)OC)c1C | 11.8 |
| O=C1CC(C(=O)NC2CCCCC2)C(c2ccccc2)O1 (stereo not shown) | 14.9 |
| N#CCCn1cc(C(=O)Nc2ccccn2)c(-c2ccccc2)n1 | 7.32 |
| CCc1nc2ccccc2c(C(=O)NCc2ccccc2)c1C | 7.13 |
| O=C(NC(=S)Nc1ccc(Br)cc1)C1CCC1 | -4.01 |
| O=C(NCCc1ccccc1)c1ccc(CS(=O)Cc2cccc(Cl)c2)o1 (stereo not shown) | 5.47 |
| CC(=O)Nc1ccc(-c2nc3ccccc3c(=O)o2)cc1 | 17.8 |
| CC(C)CNS(=O)(=O)c1ccc(CCC(=O)NCc2ccc(Cl)cc2)cc1 | 2.67 |
| CC(NC(=O)c1cccs1)C(c1cccs1)N1CCN(c2ccccc2)CC1 (stereo not shown) | -4.47 |
| CC(CCc1ccccc1)NC(=O)CC(C)c1ccccc1 (stereo not shown) | 12.4 |
| Cc1cccc(N(C(=O)CNC(=O)c2ccco2)C(C(=O)NC2CCCCC2)c2cccnc2)c1 (stereo not shown) | 18 |

| Structure (SMILES) | hERG current change (%, negative = inhibition) at 1uM [%] |
| --- | --- |
| COC(=O)c1ccc(NC(=O)CCN2CCCCC2)cc1.Cl | -51 |
| COc1ccc2nc(C)cc(SCC(=O)[O-])c2c1.[Na+] | 17 |
| Cc1c(Cc2ccccc2)c(=O)oc2cc(OCc3ccc(C(=O)O)cc3)ccc12 | 11.3 |
| COc1ccc(NS(=O)(=O)c2ccc(NC(=S)NC(=O)c3cccnc3)cc2)nn1 | 10.3 |
| Cc1cccc(Nc2ncnc(N)n2)c1 | 11.5 |
| Cn1c(NC(=O)c2ccccc2C(F)(F)F)cc(=O)n(C)c1=O | 3.26 |
| CC1(C)CC(=O)C(CC(=O)NC2CCCc3ccccc32)C(=O)C1 (stereo not shown) | 14.3 |
| CC(=O)Nc1nc(-c2ccccc2)nc(-c2ccccc2OC(C)=O)n1 | -6.2 |
| CC(=O)Nc1cccc(/C(C)=N/NC(=O)c2ccc3c(c2)OCO3)c1 | 11.6 |
| O=C(Nc1ccc(NC(=O)c2ccccc2F)cc1)c1cccs1 | 25.3 |
| CCCCc1ccc(/C=C2\C(=O)c3ccccc3C(O)=C2C(=O)OCC)cc1 | 10.4 |
| Clc1ccc(SCc2nc3ccccc3[nH]2)cc1 | 2.53 |
| O=C(COc1ccccc1C(=O)O)Nc1ccc(SC(F)F)cc1 | 11.2 |
| CCc1cc[n+](-c2nc3ccccc3nc2C(=C=[N-])C#N)cc1 | 12.5 |
| O=C(CN(CC1CCCO1)C(=O)CNS(=O)(=O)c1ccc(Cl)cc1)NCCc1ccccc1 (stereo not shown) | -10.6 |
| Cc1ccc(CNC(=O)c2cc3c(=O)n(C)c4ccccc4c3n2C)cc1 | 11.6 |
| CSc1ccc(/C=C2/C(=N)N3N=C(CC(=O)N4CCCC4)SC3=NC2=O)cc1 | 21.6 |
| Cn1cnnc1SCC(=O)N1N=C(c2ccc(Cl)cc2)CC1c1ccco1 (stereo not shown) | -2.91 |
| COc1ccccc1CN(C)C(=O)CN1CCN(S(=O)(=O)c2ccc3c(c2)OCCCO3)CC1 | 14.6 |
| CN(Cc1ccccc1)C(=O)c1ccc2c(c1)OCO2 | 2.41 |
| Cc1cc(NC(=O)CSc2nc(-c3ccccc3)cs2)no1 | 16.1 |
| CCn1c(-c2ccc([N+](=O)[O-])cc2)n[nH]c1=S | 11.4 |
| CC(C)c1ccc(NC2CCCN(C(=O)c3ccc(Cn4cnnn4)cc3)C2)cc1 (stereo not shown) | 7.77 |
